The values below come from PubChem BioAssay AID1508623 (National Center for Advancing Translational Sciences (NCATS), 2021).

In all, about 48,000 compounds went through this assay and about 450 (0.94%) were called active. About 19% were inconclusive and are not listed. Calls follow the shape of the dose curve; as a rule, active = well fitted inhibition curve with a large enough effect; inconclusive = small, poorly fitted or top-dose-only effect; inactive = no such curve, though single readings can be large or run the other way. The list shows a part of the results.

This test can be described thus: Primary qHTS for Identification of Small Molecule Inhibitors of Huntingtin Promoter Activity. Also: nearly all actives have a fitted effect of over 50% in size. Conditions: HEK293 HTT promoter firefly luciferase reporter (activity 0% = vehicle and -100% = no light), 24 h; series mostly up to 57.5 µM; activity change, negative = inhibition: at the top concentration. In a few lines: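 HEK293 luciferase promoter-reporter cells (2,500/well) plated 24 h, then compounds added at up to 57.5 uM final for 24 h at 37 °C. Firefly luminescence by Dual-Glo, normalized to vehicle (0%) and zero RLU (-100%).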
As to `Cc1ccccc1-n1c(=O)c2ccccc2n(Cc2ccc(F)cc2)c1=O`, the “activity change, negative = inhibition” value was inactive: -23.1%.

Take `CCOC(=O)c1cnc2c(Cl)c(Cl)ccc2c1Nc1ccc(N(C)C)cc1`: the “activity change, negative = inhibition” value was inactive: -1.64%.

`COc1ccc(-n2c(=O)c3c4c(sc3n(Cc3c(F)cccc3Cl)c2=O)CN(C(C)=O)CC4)cc1OC`: the “activity change, negative = inhibition” value was inactive: 9.91%.

As for `CCCc1cc(C(N)=S)ccn1`, the activity change, negative = inhibition result is “inactive”.

Consider `Cc1ccc(-c2noc(CN(C(=O)c3ccc(C(C)(C)C)cc3)C(C)C)n2)cc1`, for which the “activity change, negative = inhibition” value is inactive: -3.59%.

On to `O=S(=O)(c1ccccc1)n1nc(-c2ccc(Cl)cc2)nc1NCc1ccc(F)cc1`, for which the “activity change, negative = inhibition” value is inactive: -34.5%.

Take `COc1cccc(NC(=O)Cn2c(=O)c3cccn3c3ccc(F)cc32)c1`: the “activity change, negative = inhibition” value was inactive: -18.5%.

Turning to `COc1cccc(-c2nc(SCC(=O)NCc3ccccc3)c3c(=O)n(C)c(=O)n(C)c3n2)c1`, the “activity change, negative = inhibition” value is inactive: 6.59%.

As for `Cc1ccc(CCNC(=O)CCS(=O)(=O)c2ccc3c(c2)oc(=O)n3C)cc1`, the activity change, negative = inhibition is inactive: -4.79% [at 11.5 µM].

`COc1cccc(N2CCN(S(=O)(=O)c3ccc(-c4cc(C(F)(F)F)on4)s3)CC2)c1`: the “activity change, negative = inhibition” value was inactive: 5.13%.

With `CCOc1ccccc1NC(=O)Nc1ccccc1OCc1cc(=O)n2ccccc2n1`, the “activity change, negative = inhibition” value is inactive: 10.2%.

For `Cc1ccc(CCNC(=O)c2ccc(CS(=O)(=O)Cc3ccc(Cl)cc3)o2)cc1`, the “activity change, negative = inhibition” value was inactive: 0%.

Regarding `CN(CC(=O)NCc1ccc(Cl)cc1)S(=O)(=O)c1ccc2c(c1)c(=O)n(C)c(=O)n2C`, the “activity change, negative = inhibition” value is inactive: -4.67%.

As to `CCOc1ccccc1NC(=O)Cn1c(=O)n(-c2ccc(C)c(C)c2)c(=O)c2c(C)c(C(=O)N(C)C)sc21`, the “activity change, negative = inhibition” value was inactive: 6.78%.

In the case of `COc1cccc(-c2nnc(SCC(=O)N3CCc4ccccc43)o2)c1`, the “activity change, negative = inhibition” value was inactive: -6.01%.

Take `CCS(=O)(=O)c1c(S(=O)(=O)CC)c2cc(C(C)(C)C)ccn2c1C(=O)c1ccc(F)cc1`: the “activity change, negative = inhibition” value was inactive: -24.3%.

For `Cc1cc2c(cc1C)NC(CC(=O)Nc1cccc(C)c1C)C(=O)N2` (stereo not drawn), the “activity change, negative = inhibition” value is inactive: -9.5%.

Consider `CC(=O)Nc1ccc(C(=O)Nc2ccccc2N)cc1`, for which the “activity change, negative = inhibition” value is inactive: 161%.

On to `CCN(Cc1ccccc1)C(=O)CN1C(=O)COc2ccc(S(=O)(=O)N3CCOCC3)cc21`, for which the “activity change, negative = inhibition” value is inactive: 0.0456%.

Turning to `Cc1ccc2oc(=O)c(-c3nc(-c4cccs4)no3)cc2c1`, the “activity change, negative = inhibition” value was inactive: 31%.

As for `COc1ccc(-n2cnc3cc(C(=O)NCCC4=CCCCC4)ccc32)cc1`, the “activity change, negative = inhibition” value is inactive: -7.15%.

In the case of `COc1cc2c(Nc3ccc(NC(=O)c4ccccc4)cc3)ncnc2cc1OCCCN1CCOCC1`, the “activity change, negative = inhibition” value was inactive: 4.69%.

On to `COC(=O)c1ccccc1NC(=O)Cc1nc(-c2ccc(OC)cc2)no1`, for which the “activity change, negative = inhibition” value is inactive: -16.9%.

As for `O=C(Nc1cccc(C(=O)OCc2cc(=O)n3ccsc3n2)c1)c1ccc(F)cc1`, the “activity change, negative = inhibition” value was inactive: 3.93%.

For the compound `CCOCCCNC(=O)CCC(=O)NNc1nc2ccccc2c2nc(C)nn12`, the “activity change, negative = inhibition” value is inactive: -6.9%.

Turning to `Cc1nc2nc(SCC(=O)NCCc3ccc(Cl)cc3)nn2c(C)c1Cc1c(F)cccc1Cl`, the “activity change, negative = inhibition” value is inactive: -8.54%.

For `Cc1ccc(NC(=O)C2CCCN2S(=O)(=O)c2ccc3c(c2)n(C)c(=O)c(=O)n3C)cc1` (stereo not drawn), the “activity change, negative = inhibition” value is inactive: -13.6%.

Turning to `CCCOc1ccc(C(=O)Nc2cccc(NC(=O)c3ccc(Cl)cc3Cl)c2)cc1`, the “activity change, negative = inhibition” value was inactive: -9.73%.

As for `Cc1nn(CC(=O)NCc2ccco2)c(=O)c2nn(-c3ccccc3)c(C)c12`, the “activity change, negative = inhibition” value is inactive: -7.56%.

Turning to `CC(=O)N1CCc2cc(CNS(=O)(=O)c3ccccc3C(F)(F)F)ccc21`, the “activity change, negative = inhibition” value was inactive: 7.8%.

Consider `CCOc1cccc(C2Oc3nc(SC)nnc3-c3ccccc3N2C(C)=O)c1OC` (stereo not drawn), for which the activity change, negative = inhibition is inactive: -4% [at 11.5 µM].

In the case of `Cc1cc(C)cc(NC(=O)Cn2c(C)cc(C)c(C#N)c2=O)c1`, the “activity change, negative = inhibition” value was inactive: -3.55%.

`O=C(CSc1nc2ccccc2n1Cc1cccc(C(F)(F)F)c1)NCc1ccccc1`: the “activity change, negative = inhibition” value is inactive: -20.4%.

Regarding `CC(=O)Nc1ccc(NC(=O)c2c(-c3ccccc3)noc2C)cc1`, the “activity change, negative = inhibition” value is inactive: -1.08%.

Consider `O=C(O)c1ccc(CSc2nc3cccnc3n2Cc2cccc(F)c2)cc1`, for which the “activity change, negative = inhibition” value is inactive: -0.724%.

As to `Nc1ncc(S(=O)(=O)N2CCN(c3ccccc3)CC2)cn1`, the “activity change, negative = inhibition” value was inactive: -9.75%.

Turning to `COC(=O)CC1Oc2ccc(Cl)cc2-n2cc(-c3ccc(C)cc3)nc21` (stereo not drawn), the “activity change, negative = inhibition” value is inactive: -3.17%.

As to `O=C(CSc1nc2c([nH]c3ccccc32)c(=O)n1-c1ccc(F)cc1)Nc1ccc2c(c1)OCO2`, the “activity change, negative = inhibition” value is inactive: -26.5%.

In the case of `COc1ccc(Cl)cc1NC(=O)c1oc2ccc(S(=O)(=O)N3CCCCC3)cc2c1C`, the “activity change, negative = inhibition” value was inactive: -3.51%.

Regarding `COc1ccc(N2CCN(C(=O)c3ccc(CS(=O)c4cccc(C)c4)o3)CC2)cc1` (stereo not drawn), the “activity change, negative = inhibition” value was inactive: -18.8%.

As to `Oc1c(C(c2cccc(Cl)c2)N2CCOCC2)sc2nc(-c3ccco3)nn12` (stereo not drawn), the “activity change, negative = inhibition” value was inactive: 4.24%.

`CCN1c2ccccc2-c2nc(SCC(=O)Nc3cc(C)c(Cl)cc3OC)ncc2S1(=O)=O`: the “activity change, negative = inhibition” value was inactive: -41%.

On to `Cc1ccc(C)c(N2CCN(c3nc4ccccc4n4nnnc34)CC2)c1`, for which the “activity change, negative = inhibition” value is inactive: 18.1%.

`O=C(COc1ccc(F)cc1)NCc1ccc2c(c1)CCN2C(=O)c1ccc(F)cc1`: the “activity change, negative = inhibition” value is inactive: -31.2%.

`COc1ccc(CCNC(=O)c2c3c(nc4ccccc24)C(=O)N(C2CCCCC2)C3)cc1OC`: the “activity change, negative = inhibition” value is inactive: -22%.

Regarding `O=C(Nc1ccc(F)c(Cl)c1)C1CCN(c2ncccn2)CC1`, the “activity change, negative = inhibition” value was inactive: -13.3%.

Regarding `Cc1cc(-n2c(C)nc3ccccc3c2=O)ccc1NC(=O)c1cccc([N+](=O)[O-])c1C`, the “activity change, negative = inhibition” value was inactive: -3.46%.

Regarding `Cc1cccc(OCC(=O)Nc2ccc(S(=O)(=O)N(Cc3ccccc3)c3ccccc3)cc2)c1`, the activity change, negative = inhibition is inactive: 4.24% [at 11.5 µM].
